# Experimental data reported in the supplement of paper PMC8728848.
# This is one part of the list.
# B1: Siglec-9 (Homo sapiens), Q9Y336 (protein)
# chain: MLLLLLPLLWGRERAEGQTSKLLTMQSSVTVQEGLCVHVPCSFSYPSHGWIYPGPVVHGYWFREGANTDQDAPVATNNPARAVWEETRDRFHLLGDPHTKNCTLSIRDARRSDAGRYFFKMEKGSIKWNYKHHRLSVNVTALTHRPNILIPGTLESGCPQNLTCSVPWACEQGTPPMISWIGTSVSPLDPSTTRSSVLTLIPQPQDHGTSLTCQVTFPGASVTTNKTVHLNVSYPPQNLTMTVFQGDGTVSTVLGNGSSLSLPEGQSLRLVCAVDAVDSNPPARLSLSWRGLTLCPSQPSNPGVLELPWVHLRDAAEFTCRAQNPLGSQQVYLNVSLQSKATSGVTQGVVGGAGATALVFLSFCVIFVVVRSCRKKSARPAAGVGDTGIEDANAVRGSASQGPLTEPWAEDSPPDQPPPASARSSVGEGELQYASLSFQMVKPWDSRGQEATDTEYSEIKIHR
# How the values were obtained:
# Assay in all cases: glycan array binding signal (z-score within array); higher = stronger binding
# Conditions in all cases: glycan notation: IUPAC condensed, linker removed; mutation: R120K
# [1] = target: Neu5Ac(a2-8)Neu5Ac
# Summary of the method: (§1)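 The Consortium for Functional Glycomics database supplied 3228 glycan arrays, of which those lacking an available protein sequence were dropped. The binding signal, a within-array Z-score, was averaged across arrays of the same protein sequence and across linkers. Negative scores can be read as non-binding.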
# [2] = target: Neu5Ac(a2-8)Neu5Ac(a2-3)Gal(b1-3)GalNAc(b1-4)[Neu5Ac(a2-3)]Gal(b1-4)Glc
# Summary of the method: as §1
# [3] = target: Neu5Ac(a2-8)Neu5Ac(a2-3)Gal(b1-3)GalNAc(b1-4)[Neu5Ac(a2-8)Neu5Ac(a2-3)]Gal(b1-4)Glc
# Summary of the method: as §1
# [4] = target: Neu5Ac(a2-8)Neu5Ac(a2-3)Gal(b1-4)Glc
# Summary of the method: as §1
# [5] = target: Neu5Ac(a2-8)Neu5Ac(a2-3)Gal(b1-4)GlcNAc
# Summary of the method: as §1
# [6] = target: Neu5Ac(a2-8)Neu5Ac(a2-3)[Gal(b1-3)GalNAc(b1-4)]Gal(b1-4)Glc
# Summary of the method: as §1
# [7] = target: Neu5Ac(a2-8)Neu5Ac(a2-3)[GalNAc(b1-4)]Gal(b1-4)Glc
# Summary of the method: as §1
# [8] = target: Neu5Ac(a2-8)Neu5Ac(a2-8)Neu5Ac
# Summary of the method: as §1
# [9] = target: Neu5Ac(a2-8)Neu5Ac(a2-8)Neu5Ac(a2-3)Gal(b1-4)Glc
# Summary of the method: as §1
# [10] = target: Neu5Ac(a2-8)Neu5Ac(a2-8)Neu5Ac(a2-3)[Gal(b1-3)GalNAc(b1-4)]Gal(b1-4)Glc
# Summary of the method: as §1
# [11] = target: Neu5Ac(a2-8)Neu5Ac(a2-8)Neu5Ac(a2-3)[GalNAc(b1-4)]Gal(b1-4)Glc
# Summary of the method: as §1
# [12] = target: Neu5Ac(a2-8)Neu5Ac(a2-8)Neu5Ac(a2-8)Neu5Ac(a2-3)[GalNAc(b1-4)]Gal(b1-4)Glc
# Summary of the method: as §1
# [13] = target: Neu5Ac(a2-8)Neu5Gc(a2-3)Gal(b1-4)GlcNAc
# Summary of the method: as §1
# [14] = target: Neu5Ac(b2-6)Gal(b1-4)GlcNAc
# Summary of the method: as §1
# [15] = target: Neu5Ac(b2-6)GalNAc
# Summary of the method: as §1
# [16] = target: Neu5Ac9Ac(a2-3)Gal(b1-3)GlcNAc
# Summary of the method: as §1
# [17] = target: Neu5Ac9Ac(a2-3)Gal(b1-4)GlcNAc
# Summary of the method: as §1
# [18] = target: Neu5Ac9Ac(a2-6)Gal(b1-4)GlcNAc
# Summary of the method: as §1
# [19] = target: Neu5Gc(a2-3)Gal(b1-3)GlcNAc
# Summary of the method: as §1
# [20] = target: Neu5Gc(a2-3)Gal(b1-3)[Fuc(a1-4)]GlcNAc
# Summary of the method: as §1
# [21] = target: Neu5Gc(a2-3)Gal(b1-4)Glc
# Summary of the method: as §1
# [22] = target: Neu5Gc(a2-3)Gal(b1-4)GlcNAc
# Summary of the method: as §1
# [23] = target: Neu5Gc(a2-3)Gal(b1-4)GlcNAc(b1-3)Gal(b1-4)GlcNAc(b1-2)Man(a1-3)[Neu5Gc(a2-3)Gal(b1-4)GlcNAc(b1-3)Gal(b1-4)GlcNAc(b1-2)Man(a1-6)]Man(b1-4)GlcNAc(b1-4)GlcNAc
# Summary of the method: as §1
# [24] = target: Neu5Gc(a2-3)Gal(b1-4)[Fuc(a1-3)]GlcNAc
# Summary of the method: as §1
# [25] = target: Neu5Gc(a2-6)Gal(b1-4)GlcNAc
# Summary of the method: as §1
# [26] = target: Neu5Gc(a2-6)GalNAc
# Summary of the method: as §1
# [27] = target: Neu5Gc(a2-8)Neu5Ac(a2-3)Gal(b1-4)GlcNAc
# Summary of the method: as §1
# [28] = target: Neu5Gc(a2-8)Neu5Gc(a2-3)Gal(b1-4)GlcNAc
# Summary of the method: as §1
# [29] = target: Neu5Gc(a2-8)Neu5Gc(a2-3)Gal(b1-4)GlcNAc(b1-3)Gal(b1-4)GlcNAc
# Summary of the method: as §1
# [30] = target: Neu5Gc(a2-8)Neu5Gc(a2-6)Gal(b1-4)GlcNAc
# Summary of the method: as §1
# [31] = target: Neu5Gc(b2-6)Gal(b1-4)GlcNAc
# Summary of the method: as §1
binder,measurement,setting,value
B1,glycan array binding signal (z-score),[1],-0.153
same,glycan array binding signal (z-score),[2],-0.078
same,glycan array binding signal (z-score),[3],-0.105
same,glycan array binding signal (z-score),[4],-0.004
same,glycan array binding signal (z-score),[5],-0.526
same,glycan array binding signal (z-score),[6],-0.203
same,glycan array binding signal (z-score),[7],0.082
same,glycan array binding signal (z-score),[8],0.026
same,glycan array binding signal (z-score),[9],0.028
same,glycan array binding signal (z-score),[10],0.362
same,glycan array binding signal (z-score),[11],-0.338
same,glycan array binding signal (z-score),[12],-0.075
same,glycan array binding signal (z-score),[13],-0.502
same,glycan array binding signal (z-score),[14],-0.52
same,glycan array binding signal (z-score),[15],-0.581
same,glycan array binding signal (z-score),[16],-0.113
same,glycan array binding signal (z-score),[17],-0.171
same,glycan array binding signal (z-score),[18],-0.302
same,glycan array binding signal (z-score),[19],-0.382
same,glycan array binding signal (z-score),[20],-0.221
same,glycan array binding signal (z-score),[21],0.033
same,glycan array binding signal (z-score),[22],0.036
same,glycan array binding signal (z-score),[23],-0.323
same,glycan array binding signal (z-score),[24],-0.459
same,glycan array binding signal (z-score),[25],-0.242
same,glycan array binding signal (z-score),[26],-0.34
same,glycan array binding signal (z-score),[27],-0.463
same,glycan array binding signal (z-score),[28],-0.607
same,glycan array binding signal (z-score),[29],-0.414
same,glycan array binding signal (z-score),[30],-0.909
same,glycan array binding signal (z-score),[31],-0.2
